In the supplement of paper PMC4604168 (melanoma cell lines):
The other results are listed elsewhere or left out. Repeats are few or missing, and single values can be far off.

Each compound was assayed on MZ2-MEL (assay: cell count relative to DMSO control; melanoma cells; higher = more viable cells). Settings: library dose: low library concentration; 72 h.
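Further: cell number obtained by counting DAPI-stained nuclei in high-throughput microscope images with image analysis software, screen run in 1,536-well plates.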

Row | Structure (SMILES) | cell count [%]
1 | CC(=O)c1c(C)c2cnc(Nc3ccc(N4CCNCC4)cn3)nc2n(C2CCCC2)c1=O [palbociclib] + CO[C@@H]1[C@H](N(C)C(=O)c2ccccc2)C[C@H]2O[C@]1(C)n1c3ccccc3c3c4c(c5c6ccccc6n2c5c31)C(=O)NC4 [Midostaurin] (first compound 0.04 µM, partner dose 0.08 µM) | 77.2
2 | Nc1ncn([C@H]2C[C@H](O)[C@@H](CO)O2)c(=O)n1 [decitabine] + CO[C@@H]1[C@H](N(C)C(=O)c2ccccc2)C[C@H]2O[C@]1(C)n1c3ccccc3c3c4c(c5c6ccccc6n2c5c31)C(=O)NC4 [Midostaurin] (first compound 0.1 µM, partner dose 0.08 µM) | 74.9
3 | CC(=O)c1c(C)c2cnc(Nc3ccc(N4CCNCC4)cn3)nc2n(C2CCCC2)c1=O [palbociclib] + O=C(O)C(=O)Nc1sc2c(c1C(=O)O)CCNC2 [TCS401] (first compound 0.04 µM, partner dose 1.66667 µM) | 76.6
4 | Nc1nc(F)nc2c1ncn2[C@@H]1O[C@H](CO)[C@@H](O)[C@@H]1O [fludarabine] + CN(C)S(=O)(=O)c1ccc2c(c1)/C(=C/c1cc3c([nH]1)CCCC3)C(=O)N2 [SU6656] (first compound 0.2 µM, partner dose 0.4 µM) | 99.2
5 | Nc1nc(F)nc2c1ncn2[C@@H]1O[C@H](CO)[C@@H](O)[C@@H]1O [fludarabine] + Cc1ccc(NC(=O)c2cccc(N(C)C)c2)cc1NC(=O)c1ccc(O)cc1 [ZM336372] (first compound 0.2 µM, partner dose 2 µM) | 82.5
6 | Nc1ncn([C@H]2C[C@H](O)[C@@H](CO)O2)c(=O)n1 [decitabine] + c1cc(-c2cnn3cc(-c4ccc(OCCN5CCCCC5)cc4)cnc23)ccn1 [Dorsomorphin] (first compound 0.1 µM, partner dose 0.4 µM) | 99.3
7 | Nc1nc(F)nc2c1ncn2[C@@H]1O[C@H](CO)[C@@H](O)[C@@H]1O [fludarabine] + COc1cc2ncnc(Nc3ccc(Oc4ccccc4)cc3)c2cc1OC [SrcI1] (first compound 0.2 µM, partner dose 2 µM) | 98.2
8 | Nc1ccn([C@@H]2O[C@H](CO)[C@@H](O)C2(F)F)c(=O)n1 [gemcitabine] + O=C(Nc1cccc(Cl)c1)Nc1ncc(CCNc2ncnc3ccsc23)s1 [SNS314] (first compound 0.0004 µM, partner dose 0.0008 µM) | 98.3
9 | Nc1nc(F)nc2c1ncn2[C@@H]1O[C@H](CO)[C@@H](O)[C@@H]1O [fludarabine] + C#Cc1cccc(Nc2ncnc3cc(OCCOC)c(OCCOC)cc23)c1 [erlotinib] (first compound 0.2 µM, partner dose 0.8 µM) | 95.1
10 | Nc1nc(F)nc2c1ncn2[C@@H]1O[C@H](CO)[C@@H](O)[C@@H]1O [fludarabine] + COc1cc(N2CCC(N3CCN(C)CC3)CC2)ccc1Nc1ncc(Cl)c(Nc2ccccc2S(=O)(=O)C(C)C)n1 [NVP-TAE684] (first compound 0.2 µM, partner dose 0.08 µM) | 106
11 | CC(=O)c1c(C)c2cnc(Nc3ccc(N4CCNCC4)cn3)nc2n(C2CCCC2)c1=O [palbociclib] + C=CCn1c(=O)c2cnc(Nc3ccc(N4CCN(C)CC4)cc3)nc2n1-c1cccc(C(C)(C)O)n1 [MK1775] (first compound 0.04 µM, partner dose 0.02 µM) | 71.6

The compounds below were run on MeWo in the same assay as above. Settings: library dose: low library concentration; 72 h.

Row | Structure (SMILES) | cell count [%]
12 | Nc1ccn([C@@H]2O[C@H](CO)[C@@H](O)C2(F)F)c(=O)n1 [gemcitabine] + O=C1NC(=O)/C(=C/c2ccc(-c3ccc(F)cc3O)o2)S1 [AS252424] (first compound 0.0004 µM, partner dose 1 µM) | 107
13 | Nc1ccn([C@@H]2O[C@H](CO)[C@@H](O)C2(F)F)c(=O)n1 [gemcitabine] + CC1(C)NC(=O)N(c2ccc([N+](=O)[O-])c(C(F)(F)F)c2)C1=O [nilutamide] (first compound 0.0004 µM, partner dose 1 µM) | 106
14 | Nc1ncn([C@H]2C[C@H](O)[C@@H](CO)O2)c(=O)n1 [decitabine] + NCC(=O)Nc1ccc(-n2nc(C(F)(F)F)cc2-c2ccc3c(ccc4ccccc43)c2)cc1 [OSU03012] (first compound 0.1 µM, partner dose 1 µM) | 63.6
15 | Nc1ccn([C@@H]2O[C@H](CO)[C@@H](O)C2(F)F)c(=O)n1 [gemcitabine] + CC(C)CCN1c2nc(Nc3cc(F)c(O)c(F)c3)ncc2N(C)C(=O)C1C [BID1870] (first compound 0.0004 µM, partner dose 0.2 µM) | 100
16 | CC(=O)c1c(C)c2cnc(Nc3ccc(N4CCNCC4)cn3)nc2n(C2CCCC2)c1=O [palbociclib] + COc1cc2c(Oc3ccc4[nH]c(C)cc4c3F)ncnc2cc1OCCCN1CCCC1 [cediranib] (first compound 0.04 µM, partner dose 0.4 µM) | 85.2
17 | Nc1nc(F)nc2c1ncn2[C@@H]1O[C@H](CO)[C@@H](O)[C@@H]1O [fludarabine] + O=C(O)C(=O)Nc1sc2c(c1C(=O)O)CCNC2 [TCS401] (first compound 0.2 µM, partner dose 1.66667 µM) | 46.5
18 | CC(=O)c1c(C)c2cnc(Nc3ccc(N4CCNCC4)cn3)nc2n(C2CCCC2)c1=O [palbociclib] + Cn1cc(/C=C2\C(=O)Nc3cccnc32)c2ccccc21 [GW441756] (first compound 0.04 µM, partner dose 0.4 µM) | 71.6
19 | Nc1ccn([C@@H]2O[C@H](CO)[C@@H](O)C2(F)F)c(=O)n1 [gemcitabine] + Oc1nc(-c2ccc(C(F)(F)F)cc2)nc2c1CSCC2 [XAV939] (first compound 0.0004 µM, partner dose 2 µM) | 105
20 | CC(=O)O[C@@]12CO[C@@H]1C[C@H](O)[C@@]1(C)C(=O)[C@H](O)C3=C(C)[C@@H](OC(=O)[C@H](O)[C@@H](NC(=O)OC(C)(C)C)c4ccccc4)C[C@@](O)([C@@H](OC(=O)c4ccccc4)[C@H]21)C3(C)C [Docetaxel] + Cn1c(=O)n(-c2ccc(C(C)(C)C#N)cc2)c2c3cc(-c4cnc5ccccc5c4)ccc3ncc21 [NVP-BEZ235] (first compound 0.0001 µM, partner dose 0.004 µM) | 42.7
21 | CC(=O)c1c(C)c2cnc(Nc3ccc(N4CCNCC4)cn3)nc2n(C2CCCC2)c1=O [palbociclib] + Cc1cc([N+](=O)[O-])ccc1NS(=O)(=O)c1cc(Cl)ccc1Cl [FH535] (first compound 0.04 µM, partner dose 1 µM) | 67.8
22 | CC(=O)O[C@@]12CO[C@@H]1C[C@H](O)[C@@]1(C)C(=O)[C@H](O)C3=C(C)[C@@H](OC(=O)[C@H](O)[C@@H](NC(=O)OC(C)(C)C)c4ccccc4)C[C@@](O)([C@@H](OC(=O)c4ccccc4)[C@H]21)C3(C)C [Docetaxel] + N#Cc1c(O)c2c(-c3ccc(-c4ccccc4O)cc3)csc2[nH]c1=O [A769662] (first compound 0.0001 µM, partner dose 2 µM) | 39.8
23 | CC(=O)O[C@@]12CO[C@@H]1C[C@H](O)[C@@]1(C)C(=O)[C@H](O)C3=C(C)[C@@H](OC(=O)[C@H](O)[C@@H](NC(=O)OC(C)(C)C)c4ccccc4)C[C@@](O)([C@@H](OC(=O)c4ccccc4)[C@H]21)C3(C)C [Docetaxel] + CN(C)S(=O)(=O)c1ccc2c(c1)/C(=C/c1cc3c([nH]1)CCCC3)C(=O)N2 [SU6656] (first compound 0.0001 µM, partner dose 0.4 µM) | 34.1
24 | Nc1ncn([C@H]2C[C@H](O)[C@@H](CO)O2)c(=O)n1 [decitabine] + CN(NC(=O)CC(=O)NN(C)C(=S)c1ccccc1)C(=S)c1ccccc1 [STA4783] (first compound 0.1 µM, partner dose 0.006 µM) | 103
25 | CC(=O)c1c(C)c2cnc(Nc3ccc(N4CCNCC4)cn3)nc2n(C2CCCC2)c1=O [palbociclib] + NCC(=O)Nc1ccc(-n2nc(C(F)(F)F)cc2-c2ccc3c(ccc4ccccc43)c2)cc1 [OSU03012] (first compound 0.04 µM, partner dose 1 µM) | 50.2
26 | CC(=O)O[C@@]12CO[C@@H]1C[C@H](O)[C@@]1(C)C(=O)[C@H](O)C3=C(C)[C@@H](OC(=O)[C@H](O)[C@@H](NC(=O)OC(C)(C)C)c4ccccc4)C[C@@](O)([C@@H](OC(=O)c4ccccc4)[C@H]21)C3(C)C [Docetaxel] + CC(C)CCN1c2nc(Nc3cc(F)c(O)c(F)c3)ncc2N(C)C(=O)C1C [BID1870] (first compound 0.0001 µM, partner dose 0.2 µM) | 39.6
27 | CC(=O)c1c(C)c2cnc(Nc3ccc(N4CCNCC4)cn3)nc2n(C2CCCC2)c1=O [palbociclib] + O=C(CCCCCCC(=O)Nc1ccccc1)NO [vorinostat] (first compound 0.04 µM, partner dose 0.08 µM) | 71.9
28 | CC(=O)c1c(C)c2cnc(Nc3ccc(N4CCNCC4)cn3)nc2n(C2CCCC2)c1=O [palbociclib] + CC1(C)NC(=O)N(c2ccc([N+](=O)[O-])c(C(F)(F)F)c2)C1=O [nilutamide] (first compound 0.04 µM, partner dose 1 µM) | 69.4
